Our source for the FRET efficiency values is article PMC3660575, “The Intracellular Domain of Sortilin Interacts with Amyloid Precursor Protein and Regulates Its Lysosomal and Lipid Raft Trafficking” (PLoS ONE, 2013).

The target of this assay is T1, APP770-YFP (human, UniProt P05067-1).
T1 construct: human amyloid precursor protein, the isoform named APP770; Plasmid was a gift (Prof. Goldstein, UCSD); the construct is not described further; also called APP-YFP; source: HEK293, transfected (APP770-YFP pcDNA3.1), in lysate or in living cells
The assay can be described thus: FRET or BRET; FRET acceptor bleaching in co-transfected HEK293 cells (YFP and CFP fusions); FRET efficiency from photobleached regions of interest; the negative control's value used as cut-off. Particulars: partners not purified.

APP770-YFP, sequence (P05067 18-770): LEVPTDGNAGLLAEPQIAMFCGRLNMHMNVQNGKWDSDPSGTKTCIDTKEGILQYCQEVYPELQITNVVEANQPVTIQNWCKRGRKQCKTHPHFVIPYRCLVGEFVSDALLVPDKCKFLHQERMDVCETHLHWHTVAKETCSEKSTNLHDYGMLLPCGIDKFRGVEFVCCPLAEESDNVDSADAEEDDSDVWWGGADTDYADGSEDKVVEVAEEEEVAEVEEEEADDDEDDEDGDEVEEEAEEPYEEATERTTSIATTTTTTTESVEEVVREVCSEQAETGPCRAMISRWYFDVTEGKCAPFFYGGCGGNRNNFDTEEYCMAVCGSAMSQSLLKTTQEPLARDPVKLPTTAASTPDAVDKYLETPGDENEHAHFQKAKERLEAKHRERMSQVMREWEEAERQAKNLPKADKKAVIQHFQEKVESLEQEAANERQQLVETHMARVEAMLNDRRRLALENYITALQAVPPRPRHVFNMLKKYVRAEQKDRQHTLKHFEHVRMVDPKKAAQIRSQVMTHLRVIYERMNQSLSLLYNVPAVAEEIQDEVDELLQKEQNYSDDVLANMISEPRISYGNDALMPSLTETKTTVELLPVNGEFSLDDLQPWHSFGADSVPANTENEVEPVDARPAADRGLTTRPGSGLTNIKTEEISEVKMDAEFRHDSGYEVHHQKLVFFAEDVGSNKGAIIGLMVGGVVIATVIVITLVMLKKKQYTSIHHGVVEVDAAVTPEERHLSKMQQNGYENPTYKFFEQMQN

B1: Sort […]-CFP (domain or fragment, human)
chain: [about 700 residues left out]SVPIILAIVGLMLVTVVAGVLIVKKYVCGGRFLVHRYSVLQQHAEANGVDGVDALDTASHTNKSGYHDDSDEDLLE
notes: The forward primer adds a start ATG before the stretch; source: HEK293, transfected, in living cells; not shown: CFP (vector pECFP-N1), C-terminal, kept
Molecule B1 gave an FRET efficiency of 25%.

B2: Sort […]-CFP (domain or fragment)
chain: not shown
notes: as for B1
B2: the FRET efficiency was determined as 15%.
